{"source": "paper PMC9911399", "about": "“Two distinct binding modes provide the RNA-binding protein RbFox with extraordinary sequence specificity”", "binders": {"B1": {"name": "CAUCCUG (DNA:RNA)", "RNA": "GGGAGACCGGAAUUCAGAUUGUCCCAUCCUGUUAAAUCCCGUCGUAGCCACCA", "DNA 1": "CAATCTGAATTCCGGTCTCCC", "DNA 2": "TGGTGGCTACGACGGGATT"}, "B2": {"name": "CUCCUUC (DNA:RNA)", "RNA": "B1 RNA with A26U, U27C, C29U, G31C", "DNA 1": "CAATCTGAATTCCGGTCTCCC", "DNA 2": "TGGTGGCTACGACGGGATT"}, "B3": {"name": "GUUGAAG (DNA:RNA)", "RNA": "B1 RNA with C25G, A26U, C28G, C29A, U30A", "DNA 1": "CAATCTGAATTCCGGTCTCCC", "DNA 2": "TGGTGGCTACGACGGGATT"}, "B4": {"name": "GGCAUCA (DNA:RNA)", "RNA": "GGGAGACCGGAAUUCAGAUUGUCCGGCAUCAUUAAAUCCCGUCGUAGCCACCA", "DNA 1": "CAATCTGAATTCCGGTCTCCC", "DNA 2": "TGGTGGCTACGACGGGATT"}, "B5": {"name": "UCUCUCA (DNA:RNA)", "RNA": "B4 RNA with G25U, G26C, C27U, A28C", "DNA 1": "CAATCTGAATTCCGGTCTCCC", "DNA 2": "TGGTGGCTACGACGGGATT"}, "B6": {"name": "UCGAUUC (DNA:RNA)", "RNA": "B4 RNA with G25U, G26C, C27G, C30U, A31C", "DNA 1": "CAATCTGAATTCCGGTCTCCC", "DNA 2": "TGGTGGCTACGACGGGATT"}, "B7": {"name": "UCGACAG (DNA:RNA)", "RNA": "B1 RNA with C25U, A26C, U27G, C28A, U30A", "DNA 1": "CAATCTGAATTCCGGTCTCCC", "DNA 2": "TGGTGGCTACGACGGGATT"}, "B8": {"name": "GUCGCAG (DNA:RNA)", "RNA": "B1 RNA with C25G, A26U, U27C, C28G, U30A", "DNA 1": "CAATCTGAATTCCGGTCTCCC", "DNA 2": "TGGTGGCTACGACGGGATT"}, "B9": {"name": "GGGUAAG (DNA:RNA)", "RNA": "B4 RNA with C27G, A28U, U29A, C30A, A31G", "DNA 1": "CAATCTGAATTCCGGTCTCCC", "DNA 2": "TGGTGGCTACGACGGGATT"}, "B10": {"name": "UGUUGAA (DNA:RNA)", "RNA": "B4 RNA with G25U, C27U, A28U, U29G, C30A", "DNA 1": "CAATCTGAATTCCGGTCTCCC", "DNA 2": "TGGTGGCTACGACGGGATT"}, "B11": {"name": "CUUGCGC (DNA:RNA)", "RNA": "B1 RNA with A26U, C28G, U30G, G31C", "DNA 1": "CAATCTGAATTCCGGTCTCCC", "DNA 2": "TGGTGGCTACGACGGGATT"}, "B12": {"name": "AGUGAUA (DNA:RNA)", "RNA": "B1 RNA with C25A, A26G, C28G, C29A, G31A", "DNA 1": "CAATCTGAATTCCGGTCTCCC", "DNA 2": "TGGTGGCTACGACGGGATT"}, "B13": {"name": "AUCCCCC (DNA:RNA)", "RNA": "B1 RNA with C25A, A26U, U27C, U30C, G31C", "DNA 1": "CAATCTGAATTCCGGTCTCCC", "DNA 2": "TGGTGGCTACGACGGGATT"}, "B14": {"name": "AAGGGCG (DNA:RNA)", "RNA": "B1 RNA with C25A, U27G, C28G, C29G, U30C", "DNA 1": "CAATCTGAATTCCGGTCTCCC", "DNA 2": "TGGTGGCTACGACGGGATT"}, "B15": {"name": "CCACUUU (DNA:RNA)", "RNA": "B1 RNA with A26C, U27A, C29U, G31U", "DNA 1": "CAATCTGAATTCCGGTCTCCC", "DNA 2": "TGGTGGCTACGACGGGATT"}, "B16": {"name": "GUUUCAC (DNA:RNA)", "RNA": "B1 RNA with C25G, A26U, C28U, U30A, G31C", "DNA 1": "CAATCTGAATTCCGGTCTCCC", "DNA 2": "TGGTGGCTACGACGGGATT"}, "B17": {"name": "UUUCGGC (DNA:RNA)", "RNA": "B1 RNA with C25U, A26U, C29G, U30G, G31C", "DNA 1": "CAATCTGAATTCCGGTCTCCC", "DNA 2": "TGGTGGCTACGACGGGATT"}, "B18": {"name": "GGUAUCU (DNA:RNA)", "RNA": "B4 RNA with C27U, A31U", "DNA 1": "CAATCTGAATTCCGGTCTCCC", "DNA 2": "TGGTGGCTACGACGGGATT"}, "B19": {"name": "AUAACUU (DNA:RNA)", "RNA": "B1 RNA with C25A, A26U, U27A, C28A, G31U", "DNA 1": "CAATCTGAATTCCGGTCTCCC", "DNA 2": "TGGTGGCTACGACGGGATT"}, "B20": {"name": "AAAGACA (DNA:RNA)", "RNA": "B4 RNA with G25A, G26A, C27A, A28G, U29A", "DNA 1": "CAATCTGAATTCCGGTCTCCC", "DNA 2": "TGGTGGCTACGACGGGATT"}, "B21": {"name": "CGGAGCC (DNA:RNA)", "RNA": "B4 RNA with G25C, C27G, U29G, A31C", "DNA 1": "CAATCTGAATTCCGGTCTCCC", "DNA 2": "TGGTGGCTACGACGGGATT"}, "B22": {"name": "UAGCUGU (DNA:RNA)", "RNA": "B1 RNA with C25U, U27G, C29U, U30G, G31U", "DNA 1": "CAATCTGAATTCCGGTCTCCC", "DNA 2": "TGGTGGCTACGACGGGATT"}, "B23": {"name": "UCCUGAC (DNA:RNA)", "RNA": "B4 RNA with G25U, G26C, A28U, U29G, C30A, A31C", "DNA 1": "CAATCTGAATTCCGGTCTCCC", "DNA 2": "TGGTGGCTACGACGGGATT"}, "B24": {"name": "UCUAGCU (DNA:RNA)", "RNA": "B4 RNA with G25U, G26C, C27U, U29G, A31U", "DNA 1": "CAATCTGAATTCCGGTCTCCC", "DNA 2": "TGGTGGCTACGACGGGATT"}, "B25": {"name": "UCUCGGA (DNA:RNA)", "RNA": "B1 RNA with C25U, A26C, C29G, U30G, G31A", "DNA 1": "CAATCTGAATTCCGGTCTCCC", "DNA 2": "TGGTGGCTACGACGGGATT"}, "B26": {"name": "GGUGGGA (DNA:RNA)", "RNA": "B4 RNA with C27U, A28G, U29G, C30G", "DNA 1": "CAATCTGAATTCCGGTCTCCC", "DNA 2": "TGGTGGCTACGACGGGATT"}, "B27": {"name": "UGUCGAA (DNA:RNA)", "RNA": "B1 RNA with C25U, A26G, C29G, U30A, G31A", "DNA 1": "CAATCTGAATTCCGGTCTCCC", "DNA 2": "TGGTGGCTACGACGGGATT"}, "B28": {"name": "UGCCUAU (DNA:RNA)", "RNA": "B4 RNA with G25U, A28C, C30A, A31U", "DNA 1": "CAATCTGAATTCCGGTCTCCC", "DNA 2": "TGGTGGCTACGACGGGATT"}, "B29": {"name": "UCAUAAU (DNA:RNA)", "RNA": "GGGAGACCGGAAUUCAGAUUGUCCUCAUAAUUUAAAUCCCGUCGUAGCCACCA", "DNA 1": "CAATCTGAATTCCGGTCTCCC", "DNA 2": "TGGTGGCTACGACGGGATT"}, "B30": {"name": "UGGGAAA (DNA:RNA)", "RNA": "B29 RNA with C26G, A27G, U28G, U31A", "DNA 1": "CAATCTGAATTCCGGTCTCCC", "DNA 2": "TGGTGGCTACGACGGGATT"}, "B31": {"name": "UACGCUA (DNA:RNA)", "RNA": "B1 RNA with C25U, U27C, C28G, G31A", "DNA 1": "CAATCTGAATTCCGGTCTCCC", "DNA 2": "TGGTGGCTACGACGGGATT"}}, "note": "Changes are numbered by the printed parent chain; changes in the protein carry UniProt numbers. This is one part of the list.", "data": [{"target": "T1, RBFOX1 RRM (Homo sapiens, UniProt Q9NWB1 109-208)", "T1 sequence": "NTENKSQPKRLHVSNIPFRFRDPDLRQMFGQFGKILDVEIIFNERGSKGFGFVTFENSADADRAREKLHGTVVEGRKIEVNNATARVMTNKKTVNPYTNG", "assay": "EMSA; HiTS-Eq, 1 nM pool, 10 min; buffer printed only for the single-RNA assays: 10 mM Tris pH 7.5, 150 mM NaCl, 3.4 mM EDTA, 0.001% NP-40, 30 C", "conditions": "tags: His6 N-terminal (pET28a); label: 5' 32P", "outline": "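Purified RbFox RRM (wild type or mutant) was equilibrated for 10 min in 50 µL with 1 nM of a 5′-radiolabelled pool of RNA with 7 randomized nucleotides, its flanks annealed to DNA oligonucleotides, across increasing protein concentrations. Free RNA was separated by 8% native PAGE, excised, reverse-transcribed, PCR-barcoded and sequenced on an Illumina HiSeq 2500. Relative association constants came from read-count changes of each variant against the control reaction, normalised to the cognate motif.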", "values": [{"binder": "B1", "binding signal": "0.00674 KA relative to UGCAUGU"}, {"binder": "B2", "binding signal": "0.0103 KA relative to UGCAUGU"}, {"binder": "B3", "binding signal": "0.0191 KA relative to UGCAUGU"}, {"binder": "B4", "binding signal": "0.00648 KA relative to UGCAUGU"}, {"binder": "B5", "binding signal": "0.00383 KA relative to UGCAUGU"}, {"binder": "B6", "binding signal": "0.00846 KA relative to UGCAUGU"}, {"binder": "B7", "binding signal": "0.00975 KA relative to UGCAUGU"}, {"binder": "B8", "binding signal": "0.0181 KA relative to UGCAUGU"}, {"binder": "B9", "binding signal": "0.015 KA relative to UGCAUGU"}, {"binder": "B10", "binding signal": "0.0261 KA relative to UGCAUGU"}, {"binder": "B11", "binding signal": "0.0173 KA relative to UGCAUGU"}, {"binder": "B12", "binding signal": "0.00615 KA relative to UGCAUGU"}, {"binder": "B13", "binding signal": "0.00186 KA relative to UGCAUGU"}, {"binder": "B14", "binding signal": "0.0115 KA relative to UGCAUGU"}, {"binder": "B15", "binding signal": "0.00282 KA relative to UGCAUGU"}, {"binder": "B16", "binding signal": "0.016 KA relative to UGCAUGU"}, {"binder": "B17", "binding signal": "0.0103 KA relative to UGCAUGU"}, {"binder": "B18", "binding signal": "0.00479 KA relative to UGCAUGU"}, {"binder": "B19", "binding signal": "0.00107 KA relative to UGCAUGU"}, {"binder": "B20", "binding signal": "0.00183 KA relative to UGCAUGU"}, {"binder": "B21", "binding signal": "0.0278 KA relative to UGCAUGU"}, {"binder": "B22", "binding signal": "0.0138 KA relative to UGCAUGU"}, {"binder": "B23", "binding signal": "0.0129 KA relative to UGCAUGU"}, {"binder": "B24", "binding signal": "0.00555 KA relative to UGCAUGU"}, {"binder": "B25", "binding signal": "0.00861 KA relative to UGCAUGU"}, {"binder": "B26", "binding signal": "0.0125 KA relative to UGCAUGU"}, {"binder": "B27", "binding signal": "0.0215 KA relative to UGCAUGU"}, {"binder": "B28", "binding signal": "0.0165 KA relative to UGCAUGU"}, {"binder": "B29", "binding signal": "0.000195 KA relative to UGCAUGU"}, {"binder": "B30", "binding signal": "0.0273 KA relative to UGCAUGU"}, {"binder": "B31", "binding signal": "0.00478 KA relative to UGCAUGU"}]}]}
